Measurements published in the RNAGym collection of RNA variant scans (doi:10.7554/elife.90254).
The source gives no read counts; variants with many changes may rest on few reads.

B1: OR4K15 (parent)
chain: GUUAACGGUCAUAGGCCAUGGAAACUAGGAGCACCAUUUCGCUGCCAGUGAAGAAAUGAACAAAGAAAAUCUGGGCCAGGCAGGCAUCAAAAGAAAUAGUCUUGCGCUCAACCAGAAAGUCUGUAAUCAUUUUAAGGGUA

Variants of: B1
Experiment: self-cleavage, relative activity (ratio to wild type); higher = more cleavage; in vitro, sequencing; the parent is a self-cleaving ribozyme
Work on A24G U39A A69G A118C U127C yielded a self-cleavage of 0.32. Work on U37C A54G U87C yielded a self-cleavage of 0.93. In the case of U49G A66G U131C U132C, the self-cleavage is reported as 0.57. A23C A68G A78G A89C A96G U139A showed a self-cleavage of 0.1. Work on A33G A51U A67G A86G yielded a self-cleavage of 1.17. For A86G A95G A117U, the self-cleavage was 1.18. For A4G A64G A86G U124C U130C, the self-cleavage was 0.27. U12C A24C U72A U100C A116G gave a self-cleavage of 0.28. For C6U A89G A111G, the self-cleavage was 0.03. U19A A36U A92G A116G gave a self-cleavage of 1.21. Variant U2C U102A U103C A111G has a self-cleavage of 0.02. Work on A51G U87C G93A yielded a self-cleavage of 2.11. Variant A5C A55U A86G A90G U108C A117G has a self-cleavage of 0. Variant U26A A56G A86G A95G U108C A118G has a self-cleavage of 0. Work on U2A A52U U72A yielded a self-cleavage of 0.74. Work on A30G A33G A52G A67G A111G A116G U139C yielded a self-cleavage of 0. A33G C40U A78G gave a self-cleavage of 0.24. G8U A90G U139C gave a self-cleavage of 0.65. With A30G G53A C76G the self-cleavage was 0.31. In the case of A18G U26C A118G, the self-cleavage is reported as 1.07. U12G A96U A118G showed a self-cleavage of 0.85. For A47G A82U A111G, the self-cleavage was 0.01. A13G U37C A54G A59G A62G A68G A86G A116G G119C gave a self-cleavage of 0.47. For A5U G106A U139C, the self-cleavage was 0. Variant G7U A13G A116G has a self-cleavage of 1.43. For A55C A60G A64G A110U, the self-cleavage was 1.07. For A117U A118G U132C, the self-cleavage was 1.08. Work on A30G A33G U70C yielded a self-cleavage of 0.44. Variant A27U A94G U102C U103A has a self-cleavage of 0.21. In the case of A27G A68G U102A A118G, the self-cleavage is reported as 0.22. Work on A11G A27G U39A A68G yielded a self-cleavage of 1.05. A56G U87C A91G A116G gave a self-cleavage of 0.25. In the case of A11G A30G U49C U139C, the self-cleavage is reported as 1.41. In the case of A52G U72C A114G, the self-cleavage is reported as 1.71. With U2G U103C U127C A129G the self-cleavage was 0.12. For A13G A52G G74U, the self-cleavage was 0.25. Variant C81G A86U U130C U132C U139C has a self-cleavage of 0.24. Work on A23G A24G C45U U57C yielded a self-cleavage of 0.42. A92G A96G A135U gave a self-cleavage of 1.11. A30G A55G U102A U108C U122G gave a self-cleavage of 0. With A66G A114G A117G U133A the self-cleavage was 0.3. A33U A110U A111G U120A showed a self-cleavage of 0.01. For A36G A51G A60G A68U A92G A98G, the self-cleavage was 0.25. Variant C10A U49C A64G A94G U100C has a self-cleavage of 0.82. With U103A C105A U108C U122C the self-cleavage was 0. In the case of U39C U49C A82G U108C A116G A126G, the self-cleavage is reported as 0. C6U A30U A66U U122G gave a self-cleavage of 0.95. A33G A63G A78G A98G U120C showed a self-cleavage of 0.06. U37C A60G A95G showed a self-cleavage of 0.82. Variant U19A A91G A94G has a self-cleavage of 1.47. With A11C U103C U124A A135G the self-cleavage was 0.31. A68G A69U A90G gave a self-cleavage of 0.34. A24G A33G A95G A134G gave a self-cleavage of 1.55. In the case of A51G A67G A90G A96G, the self-cleavage is reported as 1.41. Variant C42G A63G A78U U139C has a self-cleavage of 0.28. Work on G7A G14A U103C yielded a self-cleavage of 0.49. Variant A18G U49C A68G A89U A117G U132C has a self-cleavage of 1.89. U2C A5G A86G gave a self-cleavage of 1.26. In the case of U12A A24G A27G A98G, the self-cleavage is reported as 0.57. With A64G U127C A134G the self-cleavage was 1.07. For A23G A51G A62C A68G G106A, the self-cleavage was 0.02. Variant U38A A47G A64G U100C has a self-cleavage of 2.47. Variant A11G A67U U72C A95G U97C A116G has a self-cleavage of 0.04. Work on U3C A33G A51G A63U U87C A98G yielded a self-cleavage of 1.16. In the case of U2C A54G A95U A126G, the self-cleavage is reported as 1.08. In the case of A67G U70C A86C, the self-cleavage is reported as 0.38. Variant A24C A30G A52G A69C C85A has a self-cleavage of 1.39. A23G U26C A30G A52G A68G showed a self-cleavage of 0.32. A55G A63U C105U A111G showed a self-cleavage of 0.01. For A11G A56U A82U, the self-cleavage was 0.07. Work on A60G A91G G104U yielded a self-cleavage of 0.01. Variant U37C A67G A110U has a self-cleavage of 1.54. In the case of G31A G104A A110U, the self-cleavage is reported as 0.01. For U97C U102C U122C, the self-cleavage was 2.11. A33U G83A U127C gave a self-cleavage of 0.76. With A52G U108C A111G the self-cleavage was 0.04. For U3C U43C A54G, the self-cleavage was 1.25. For A24G A52G A68U, the self-cleavage was 1.52. Work on A36U A94G U100C yielded a self-cleavage of 2.28. In the case of A47G A63G C105U A111G, the self-cleavage is reported as 0. A67G U70C A91G A110U showed a self-cleavage of 0.18. With U39C A62U A68G A96U the self-cleavage was 1.16. In the case of G14C U72C A95G, the self-cleavage is reported as 0.68.
